This is one part of the list. Most values come without repeats; read them as rough.
How the values were obtained:
Assay in all cases: cell count relative to DMSO control; melanoma cells; higher = more viable cells
Conditions in all cases: library dose: standard library concentration; 72 h
[1] = tested on: G361
[2] = tested on: IPC-298
[3] = tested on: IST-MEL1
[4] = tested on: LB2518-MEL
[5] = tested on: LOXIMVI
[6] = tested on: MEL-HO
[7] = tested on: MZ2-MEL
[8] = tested on: MeWo
[9] = tested on: RPMI7951
[10] = tested on: RVH-421
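Also: cells treated in 1,536-well plates, then fixed and DAPI-stained, with nuclei counted from automated high-throughput microscope images.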

CS(=O)(=O)c1ccc(C(=O)Nc2ccc(Cl)c(-c3ccccn3)c2)c(Cl)c1 [vismodegib] + COc1ccc(COc2ccc(Cc3cnc(N)nc3N)cc2OC)cc1 [GW2580] (first compound 5 µM, partner dose 5 µM)
cell count [1]: 93%
cell count [2]: 92.9%
cell count [3]: 101%
cell count [4]: 117%
cell count [5]: 85.8%
cell count [6]: 90.2%
cell count [7]: 103%
cell count [8]: 79.8%
cell count [9]: 89.2%
cell count [10]: 79.9%

CS(=O)(=O)c1ccc(C(=O)Nc2ccc(Cl)c(-c3ccccn3)c2)c(Cl)c1 [vismodegib] + CN(c1ncccc1CNc1nc(Nc2ccc3c(c2)CC(=O)N3)ncc1C(F)(F)F)S(C)(=O)=O [PF562271] (first compound 5 µM, partner dose 0.4 µM)
cell count [1]: 72.5%
cell count [2]: 87.5%
cell count [3]: 102%
cell count [4]: 99.9%
cell count [5]: 139%
cell count [6]: 96.4%
cell count [7]: 110%
cell count [8]: 94.2%
cell count [9]: 58.7%
cell count [10]: 112%

CN(c1ncccc1CNc1nc(Nc2ccc3c(c2)CC(=O)N3)ncc1C(F)(F)F)S(C)(=O)=O + CC(=O)c1c(C)c2cnc(Nc3ccc(N4CCNCC4)cn3)nc2n(C2CCCC2)c1=O [palbociclib] (first compound 0.4 µM, partner dose 0.2 µM)
cell count [1]: 58.7%
cell count [2]: 66.3%
cell count [3]: 70.3%
cell count [5]: 61.5%
cell count [6]: 71.8%
cell count [8]: 51.5%
cell count [9]: 43.2%
cell count [10]: 64.3%

NC1(c2ccc(-c3nc4ccn5c(=O)[nH]nc5c4cc3-c3ccccc3)cc2)CCC1 + Oc1cc(-c2nc(-c3ccccc3)[nH]c2-c2ccncc2)ccc1Cl [L779450] (first compound 2 µM, partner dose 1 µM)
cell count [1]: 46.1%
cell count [2]: 83.8%
cell count [3]: 86.8%
cell count [4]: 99.4%
cell count [5]: 64.6%
cell count [6]: 76.1%
cell count [7]: 105%
cell count [8]: 62.6%
cell count [9]: 72.8%
cell count [10]: 72.4%

CCCS(=O)(=O)Nc1ccc(F)c(C(=O)c2c[nH]c3ncc(Cl)cc23)c1F + Cn1c(Nc2ccc(C(F)(F)F)cc2)nc2cc(Oc3ccnc(-c4ncc(C(F)(F)F)[nH]4)c3)ccc21 [CHIR265] (first compound 0.4 µM, partner dose 0.4 µM)
cell count [1]: 20.1%
cell count [2]: 52.1%
cell count [3]: 90.3%
cell count [4]: 40.4%
cell count [5]: 74.3%
cell count [6]: 58.5%
cell count [7]: 68.9%
cell count [8]: 101%
cell count [9]: 50.5%
cell count [10]: 36.5%

NC1(c2ccc(-c3nc4ccn5c(=O)[nH]nc5c4cc3-c3ccccc3)cc2)CCC1 + Cc1cc(N2CCOCC2)cc2[nH]c(-c3c(NC[C@@H](O)c4cccc(Cl)c4)cc[nH]c3=O)nc12 [BMS536924] (first compound 2 µM, partner dose 1 µM)
cell count [1]: 65%
cell count [2]: 97.5%
cell count [3]: 89.3%
cell count [5]: 64.4%
cell count [6]: 66.5%
cell count [8]: 79.5%
cell count [9]: 61.7%
cell count [10]: 69.3%

CS(=O)(=O)c1ccc(C(=O)Nc2ccc(Cl)c(-c3ccccn3)c2)c(Cl)c1 [vismodegib] + Cn1cc(/C=C2\C(=O)Nc3cccnc32)c2ccccc21 [GW441756] (first compound 5 µM, partner dose 2 µM)
cell count [1]: 89.7%
cell count [2]: 93.5%
cell count [3]: 95.7%
cell count [4]: 128%
cell count [5]: 104%
cell count [6]: 82.4%
cell count [7]: 90%
cell count [8]: 86%
cell count [9]: 80%
cell count [10]: 119%

NC1(c2ccc(-c3nc4ccn5c(=O)[nH]nc5c4cc3-c3ccccc3)cc2)CCC1 + CO[C@@H]1[C@H](N(C)C(=O)c2ccccc2)C[C@H]2O[C@]1(C)n1c3ccccc3c3c4c(c5c6ccccc6n2c5c31)C(=O)NC4 [Midostaurin] (first compound 2 µM, partner dose 0.4 µM)
cell count [1]: 53.2%
cell count [2]: 82.1%
cell count [3]: 69.2%
cell count [5]: 42.4%
cell count [6]: 53.7%
cell count [8]: 65.6%
cell count [9]: 42.9%
cell count [10]: 57.2%

NC1(c2ccc(-c3nc4ccn5c(=O)[nH]nc5c4cc3-c3ccccc3)cc2)CCC1 + C=C(c1ccc(C(=O)O)cc1)c1cc2c(cc1C)C(C)(C)CCC2(C)C [Bexarotene] (first compound 2 µM, partner dose 10 µM)
cell count [1]: 78.2%
cell count [2]: 80.7%
cell count [3]: 75.5%
cell count [4]: 73.8%
cell count [5]: 87.3%
cell count [6]: 83%
cell count [7]: 76.6%
cell count [8]: 84%
cell count [9]: 63.9%
cell count [10]: 93.3%

CS(=O)(=O)c1ccc(C(=O)Nc2ccc(Cl)c(-c3ccccn3)c2)c(Cl)c1 [vismodegib] + CN(NC(=O)CC(=O)NN(C)C(=S)c1ccccc1)C(=S)c1ccccc1 [STA4783] (first compound 5 µM, partner dose 0.03 µM)
cell count [1]: 32.7%
cell count [2]: 86.9%
cell count [3]: 52.2%
cell count [5]: 75.7%
cell count [6]: 94.4%
cell count [8]: 10.9%
cell count [9]: 112%
cell count [10]: 66%

C=C(c1ccc(C(=O)O)cc1)c1cc2c(cc1C)C(C)(C)CCC2(C)C [Bexarotene] + COc1cc2c(Oc3ccc4[nH]c(C)cc4c3F)ncnc2cc1OCCCN1CCCC1 [cediranib] (first compound 10 µM, partner dose 2 µM)
cell count [1]: 79.9%
cell count [2]: 87.1%
cell count [3]: 90.8%
cell count [4]: 85.9%
cell count [5]: 65.1%
cell count [6]: 102%
cell count [7]: 41.9%
cell count [8]: 90.1%
cell count [9]: 55.1%
cell count [10]: 77.7%

CN(c1ncccc1CNc1nc(Nc2ccc3c(c2)CC(=O)N3)ncc1C(F)(F)F)S(C)(=O)=O + CCc1ccc(CCOc2ccc(CC3SC(=O)NC3=O)cc2)nc1 [pioglitazone] (first compound 0.4 µM, partner dose 10 µM)
cell count [1]: 66.1%
cell count [2]: 89.2%
cell count [3]: 82.4%
cell count [4]: 89.4%
cell count [5]: 103%
cell count [6]: 77.9%
cell count [7]: 78.7%
cell count [8]: 102%
cell count [9]: 73.6%
cell count [10]: 71.6%

CS(=O)(=O)c1ccc(C(=O)Nc2ccc(Cl)c(-c3ccccn3)c2)c(Cl)c1 [vismodegib] + CCN(CC)CCNC(=O)c1c(C)[nH]c(/C=C2\C(=O)Nc3ccc(F)cc32)c1C [sunitinib] (first compound 5 µM, partner dose 2 µM)
cell count [1]: 65.7%
cell count [2]: 71.3%
cell count [3]: 107%
cell count [4]: 61.3%
cell count [5]: 118%
cell count [6]: 95.5%
cell count [7]: 91.8%
cell count [8]: 56.8%
cell count [9]: 80.9%
cell count [10]: 74.7%

CN(c1ncccc1CNc1nc(Nc2ccc3c(c2)CC(=O)N3)ncc1C(F)(F)F)S(C)(=O)=O + COCC[n+]1c2c(n(Cc3cnccn3)c1C)C(=O)c1ccccc1C2=O [YM155] (first compound 0.4 µM, partner dose 0.002 µM)
cell count [1]: 57%
cell count [2]: 44.7%
cell count [3]: 44.3%
cell count [5]: 46%
cell count [6]: 86.7%
cell count [8]: 33.3%
cell count [9]: 27.4%
cell count [10]: 87.6%

NC1(c2ccc(-c3nc4ccn5c(=O)[nH]nc5c4cc3-c3ccccc3)cc2)CCC1 + CCCS(=O)(=O)Nc1ccc(F)c(C(=O)c2c[nH]c3ncc(Cl)cc23)c1F [PLX4720] (first compound 2 µM, partner dose 0.4 µM)
cell count [1]: 32.9%
cell count [2]: 73.2%
cell count [3]: 71.4%
cell count [4]: 76.4%
cell count [5]: 84.7%
cell count [6]: 54.4%
cell count [7]: 55.6%
cell count [8]: 69.1%
cell count [9]: 63.2%
cell count [10]: 98%

CCCS(=O)(=O)Nc1ccc(F)c(C(=O)c2c[nH]c3ncc(Cl)cc23)c1F + O=C(Nc1cccc(Cl)c1)Nc1ncc(CCNc2ncnc3ccsc23)s1 [SNS314] (first compound 0.4 µM, partner dose 0.004 µM)
cell count [1]: 74%
cell count [2]: 75.7%
cell count [3]: 59.3%
cell count [4]: 83.8%
cell count [5]: 81.6%
cell count [6]: 68.8%
cell count [7]: 61.2%
cell count [8]: 66.3%
cell count [9]: 75.6%
cell count [10]: 89.3%

CN(c1ncccc1CNc1nc(Nc2ccc3c(c2)CC(=O)N3)ncc1C(F)(F)F)S(C)(=O)=O + COc1cc2c(Oc3ccc4[nH]c(C)cc4c3F)ncnc2cc1OCCCN1CCCC1 [cediranib] (first compound 0.4 µM, partner dose 2 µM)
cell count [1]: 71.6%
cell count [2]: 103%
cell count [3]: 78.5%
cell count [5]: 49.4%
cell count [6]: 84.4%
cell count [8]: 81.4%
cell count [9]: 53.4%
cell count [10]: 77.1%

Reference: the supplement of paper PMC4604168 (melanoma cell lines)
